In PubChem BioAssay AID624417 (National Center for Advancing Translational Sciences (NCATS), 2012):
About 6,400 (1.6%) of roughly 410,000 compounds were called active. Inconclusive results, whose numbers are uncertain, are shown with a selection of clear calls. Calls follow the shape of the dose curve; as a rule, active = well fitted inhibition curve with a large enough effect; inconclusive = small, poorly fitted or top-dose-only effect; inactive = no such curve, though single readings can be large or run the other way. Potencies of inconclusive entries are left out as doubtful fits.
% is scaled to controls: 0 for no effect and ±100 for the full control effect; potency is read from the fitted curve at half-maximal effect; tags tell the direction and shape of the fitted curve.
Also: nearly all actives have a fitted effect of over 55% in size.

These compounds were tested against Glucagon-like peptide 1 receptor (Homo sapiens) (UniProt P43220) (assay: qHTS of GLP-1 Receptor Inverse Agonists (Inhibition Mode)). Details: HEK293 GLP-1R CRE-luciferase, luminescence, 24 h, GLP-1R form is constitutively active; activity change, negative = inhibition: at 38.3 µM (top of the series) unless noted.
UniProt P43220, sequence (P43220 whole entry, looked up): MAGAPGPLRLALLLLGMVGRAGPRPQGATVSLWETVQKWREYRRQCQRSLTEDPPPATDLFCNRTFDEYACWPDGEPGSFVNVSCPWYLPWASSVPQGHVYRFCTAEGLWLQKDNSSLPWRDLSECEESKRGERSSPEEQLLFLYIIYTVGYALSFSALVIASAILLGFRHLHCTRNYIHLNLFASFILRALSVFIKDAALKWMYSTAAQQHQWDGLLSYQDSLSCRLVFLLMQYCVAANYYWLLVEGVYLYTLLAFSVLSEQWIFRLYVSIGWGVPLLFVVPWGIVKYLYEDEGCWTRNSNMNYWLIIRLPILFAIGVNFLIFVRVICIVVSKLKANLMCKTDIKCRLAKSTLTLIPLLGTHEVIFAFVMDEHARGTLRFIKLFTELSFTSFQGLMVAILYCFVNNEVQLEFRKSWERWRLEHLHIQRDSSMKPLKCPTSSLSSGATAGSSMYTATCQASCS
Procedure, shortened: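 Constitutively active GLP-1R drives a cAMP-responsive luciferase in stably transfected HEK293 cells; test compounds are added after overnight (12 h) attachment and left 24 hr, and signal loss in luminescence marks inhibition.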
`COc1ccc(N2CCN(CCNS(=O)(=O)c3ccc(C)cc3)CC2)cc1` was tested, and the Potency was inconclusive [inhibitor, single point]. With `C[C@]12c3[nH]c4ccc(Cl)cc4c3CCN1C(=O)[C@@H](CC(=O)NCc1ccco1)C[C@@H]2C(=O)N1CCCCC1` the Potency was inconclusive [inhibitor, single point]. With `Cc1ccc(CC(NC(=O)c2ccc(C)cc2)C(=O)O)cc1` (stereo not drawn) the “activity change, negative = inhibition” value was inactive: 9.88%. `O=C(Nc1ccc2c(c1)OCCO2)c1c[nH]c(=O)n(-c2ccc(F)c(Cl)c2)c1=O` was tested, and the Potency was inconclusive [inhibitor, partial curve, poor fit]. With `CC(C)CCC(CCN1CCCC1)c1ccc2c(c1)OCO2` (stereo not drawn) the Potency was inconclusive [inhibitor, single point]. With `CC(=O)OCC1OC(Sc2cccc3cccnc23)C(OC(C)=O)C(OC(C)=O)C1OC(C)=O` (stereo not drawn) the Potency was inconclusive [inhibitor, single point]. `COc1ccc(N2CCN(CC(O)COc3ccccc3C(C)(C)C)CC2)cc1` (stereo not drawn) was tested, and the Potency was inconclusive [inhibitor, single point]. `CCN(c1ccc(OC)cc1)S(=O)(=O)c1c(C(=O)N2CCCCCC2)c(C)n(C)c1C` was tested, and the “activity change, negative = inhibition” value was inactive: -2.78%. In the case of `O=C1NC2(CCCCCC2)C(=O)N1Cc1ccccc1Br`, the Potency is reported as inconclusive [inhibitor, single point]. In the case of `O=C(NC1CCSc2ccccc21)c1ccc([N+](=O)[O-])cc1` (stereo not drawn), the Potency is reported as inconclusive [inhibitor, single point]. `CC(NC(=O)c1ccc(Cl)cc1)C1CC2CCC1C2` (stereo not drawn) was tested, and the Potency was inconclusive [inhibitor, single point]. For `C/C(Cl)=C\COc1cc(C)nc2c(Br)cccc12`, the Potency was inconclusive [inhibitor, single point]. For `CCOC(=O)C1=CCN(S(=O)(=O)c2ccccc2Cl)C1c1cccc(F)c1` (stereo not drawn), the Potency was inconclusive [inhibitor, single point]. In the case of `COC(=O)CCCCCN1C(=O)/C(=C\c2ccncc2)SC1=S`, the Potency is reported as inconclusive [inhibitor, single point]. `COc1ccc(NC(=O)c2cc(-c3ccco3)on2)c(OC)c1` was tested, and the “activity change, negative = inhibition” value was inactive: 30.4%. With `CN1CCCN(C(=O)/C=C/c2ccc(F)cc2)CC1` the “activity change, negative = inhibition” value was inactive: -0.906%. With `Oc1ccc(Cl)cc1-c1cc(-c2ccccc2)n[nH]1` the Potency was inconclusive [inhibitor, single point]. For `Nc1c(C(=O)Nc2ccc(Cl)cc2)sc2nc(N3CCOCC3)c3c(c12)CCCC3`, the Potency was inconclusive [inhibitor, single point].
